From the supplement of paper PMC8728848
This is one part of the list.

Key:
Assay in all cases: glycan array binding signal (z-score within array); higher = stronger binding
Conditions in all cases: glycan notation: IUPAC condensed, linker removed
Gal(b1-4)Glc = target: Gal(b1-4)Glc
Method in brief: (§1)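 The binding signal is a Z-score computed within each array. Data were drawn from 3228 arrays in the Consortium for Functional Glycomics database, restricted to those with a known protein sequence. Scores were averaged over arrays of the same protein sequence at different concentrations or buffers, and over linkers, and negative values can be taken as non-binding.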

Gal(b1-4)Glc6S = target: Gal(b1-4)Glc6S
Method in brief: as §1

Gal(b1-4)GlcNAc = target: Gal(b1-4)GlcNAc
Method in brief: as §1

[1] = target: Gal(b1-4)GlcNAc(a1-6)Gal(b1-4)GlcNAc
Method in brief: as §1

Gal(b1-4)GlcNAc(b1-2)Man = target: Gal(b1-4)GlcNAc(b1-2)Man
Method in brief: as §1

[2] = target: Gal(b1-4)GlcNAc(b1-2)Man(a1-3)Man(b1-4)GlcNAc(b1-4)GlcNAc
Method in brief: as §1

[3] = target: Gal(b1-4)GlcNAc(b1-2)Man(a1-3)[Gal(b1-4)GlcNAc(b1-2)Man(a1-6)]Man(b1-4)GlcNAc(b1-4)GlcNAc
Method in brief: as §1

[4] = target: Gal(b1-4)GlcNAc(b1-2)Man(a1-3)[Gal(b1-4)GlcNAc(b1-2)Man(a1-6)]Man(b1-4)GlcNAc(b1-4)[Fuc(a1-6)]GlcNAc
Method in brief: as §1

[5] = target: Gal(b1-4)GlcNAc(b1-2)Man(a1-3)[Gal(b1-4)GlcNAc(b1-2)Man(a1-6)][Gal(b1-4)GlcNAc(b1-4)]Man(b1-4)GlcNAc(b1-4)[Fuc(a1-6)]GlcNAc
Method in brief: as §1

[6] = target: Gal(b1-4)GlcNAc(b1-2)Man(a1-3)[Gal(b1-4)GlcNAc(b1-2)Man(a1-6)][GlcNAc(b1-4)]Man(b1-4)GlcNAc(b1-4)[Fuc(a1-6)]GlcNAc
Method in brief: as §1

[7] = target: Gal(b1-4)GlcNAc(b1-2)Man(a1-3)[GlcNAc(b1-2)Man(a1-6)]Man(b1-4)GlcNAc(b1-4)GlcNAc
Method in brief: as §1

[8] = target: Gal(b1-4)GlcNAc(b1-2)Man(a1-3)[GlcNAc(b1-4)][Gal(b1-4)GlcNAc(b1-2)Man(a1-6)]Man(b1-4)GlcNAc(b1-4)GlcNAc
Method in brief: as §1

[9] = target: Gal(b1-4)GlcNAc(b1-2)Man(a1-3)[Man(a1-6)]Man(b1-4)GlcNAc(b1-4)GlcNAc
Method in brief: as §1

[10] = target: Gal(b1-4)GlcNAc(b1-2)Man(a1-6)Man(b1-4)GlcNAc(b1-4)GlcNAc
Method in brief: as §1

[11] = target: Gal(b1-4)GlcNAc(b1-2)Man(a1-6)[GlcNAc(b1-2)Man(a1-3)]Man(b1-4)GlcNAc(b1-4)GlcNAc
Method in brief: as §1

[12] = target: Gal(b1-4)GlcNAc(b1-2)Man(a1-6)[Man(a1-3)]Man(b1-4)GlcNAc(b1-4)GlcNAc
Method in brief: as §1

[13] = target: Gal(b1-4)GlcNAc(b1-2)[Gal(b1-4)GlcNAc(b1-4)]Man(a1-3)[Gal(b1-4)GlcNAc(b1-2)Man(a1-6)]Man(b1-4)GlcNAc(b1-4)GlcNAc
Method in brief: as §1

[14] = target: Gal(b1-4)GlcNAc(b1-2)[Gal(b1-4)GlcNAc(b1-4)]Man(a1-3)[Gal(b1-4)GlcNAc(b1-2)[Gal(b1-4)GlcNAc(b1-6)]Man(a1-6)]Man(b1-4)GlcNAc(b1-4)GlcNAc
Method in brief: as §1

[15] = target: Gal(b1-4)GlcNAc(b1-2)[Gal(b1-4)GlcNAc(b1-4)]Man(a1-3)[GlcNAc(b1-4)][Gal(b1-4)GlcNAc(b1-2)Man(a1-6)]Man(b1-4)GlcNAc(b1-4)GlcNAc
Method in brief: as §1

[16] = target: Gal(b1-4)GlcNAc(b1-2)[Gal(b1-4)GlcNAc(b1-4)]Man(a1-3)[GlcNAc(b1-4)][Gal(b1-4)GlcNAc(b1-2)[Gal(b1-4)GlcNAc(b1-6)]Man(a1-6)]Man(b1-4)GlcNAc(b1-4)GlcNAc
Method in brief: as §1

[17] = target: Gal(b1-4)GlcNAc(b1-2)[Gal(b1-4)GlcNAc(b1-6)]Man(a1-6)[Gal(b1-4)GlcNAc(b1-2)Man(a1-3)]Man(b1-4)GlcNAc(b1-4)GlcNAc
Method in brief: as §1

[18] = target: Gal(b1-4)GlcNAc(b1-2)[Gal(b1-4)GlcNAc(b1-6)]Man(a1-6)[Gal(b1-4)GlcNAc(b1-2)Man(a1-3)]Man(b1-4)GlcNAc(b1-4)[Fuc(a1-6)]GlcNAc
Method in brief: as §1

[19] = target: Gal(b1-4)GlcNAc(b1-2)[Gal(b1-4)GlcNAc(b1-6)]Man(a1-6)[GlcNAc(b1-4)][Gal(b1-4)GlcNAc(b1-2)Man(a1-3)]Man(b1-4)GlcNAc(b1-4)GlcNAc
Method in brief: as §1

[20] = target: Gal(b1-4)GlcNAc(b1-2)[Gal(b1-4)GlcNAc(b1-6)]Man(a1-6)[GlcNAc(b1-4)][Gal(b1-4)GlcNAc(b1-2)[Gal(b1-4)GlcNAc(b1-4)]Man(a1-3)]Man(b1-4)GlcNAc(b1-4)[Fuc(a1-6)]GlcNAc
Method in brief: as §1

[21] = target: Gal(b1-4)GlcNAc(b1-3)Gal(b1-3)GalNAc
Method in brief: as §1

[22] = target: Gal(b1-4)GlcNAc(b1-3)Gal(b1-3)GlcNAc
Method in brief: as §1

[23] = target: Gal(b1-4)GlcNAc(b1-3)Gal(b1-4)Glc
Method in brief: as §1

[24] = target: Gal(b1-4)GlcNAc(b1-3)Gal(b1-4)GlcNAc
Method in brief: as §1

[25] = target: Gal(b1-4)GlcNAc(b1-3)Gal(b1-4)GlcNAc(b1-2)Man(a1-3)[Gal(b1-4)GlcNAc(b1-3)Gal(b1-4)GlcNAc(b1-2)Man(a1-6)]Man(b1-4)GlcNAc(b1-4)GlcNAc
Method in brief: as §1

[26] = target: Gal(b1-4)GlcNAc(b1-3)Gal(b1-4)GlcNAc(b1-2)Man(a1-3)[Gal(b1-4)GlcNAc(b1-3)Gal(b1-4)GlcNAc(b1-2)Man(a1-6)]Man(b1-4)GlcNAc(b1-4)[Fuc(a1-6)]GlcNAc
Method in brief: as §1

[27] = target: Gal(b1-4)GlcNAc(b1-3)Gal(b1-4)GlcNAc(b1-2)[Gal(b1-4)GlcNAc(b1-3)Gal(b1-4)GlcNAc(b1-6)]Man(a1-6)[Gal(b1-4)GlcNAc(b1-3)Gal(b1-4)GlcNAc(b1-2)Man(a1-3)]Man(b1-4)GlcNAc(b1-4)GlcNAc
Method in brief: as §1

[28] = target: Gal(b1-4)GlcNAc(b1-3)Gal(b1-4)GlcNAc(b1-2)[Gal(b1-4)GlcNAc(b1-3)Gal(b1-4)GlcNAc(b1-6)]Man(a1-6)[Gal(b1-4)GlcNAc(b1-3)Gal(b1-4)GlcNAc(b1-2)Man(a1-3)]Man(b1-4)GlcNAc(b1-4)[Fuc(a1-6)]GlcNAc
Method in brief: as §1

[29] = target: Gal(b1-4)GlcNAc(b1-3)Gal(b1-4)GlcNAc(b1-3)Gal(b1-4)GlcNAc
Method in brief: as §1

[30] = target: Gal(b1-4)GlcNAc(b1-3)Gal(b1-4)GlcNAc(b1-3)Gal(b1-4)GlcNAc(b1-2)Man(a1-3)[Gal(b1-4)GlcNAc(b1-3)Gal(b1-4)GlcNAc(b1-3)Gal(b1-4)GlcNAc(b1-2)Man(a1-6)]Man(b1-4)GlcNAc(b1-4)GlcNAc
Method in brief: as §1

[31] = target: Gal(b1-4)GlcNAc(b1-3)Gal(b1-4)GlcNAc(b1-3)Gal(b1-4)GlcNAc(b1-2)Man(a1-3)[Gal(b1-4)GlcNAc(b1-3)Gal(b1-4)GlcNAc(b1-3)Gal(b1-4)GlcNAc(b1-2)Man(a1-6)]Man(b1-4)GlcNAc(b1-4)[Fuc(a1-6)]GlcNAc
Method in brief: as §1

[32] = target: Gal(b1-4)GlcNAc(b1-3)Gal(b1-4)GlcNAc(b1-3)Gal(b1-4)GlcNAc(b1-2)[Gal(b1-4)GlcNAc(b1-3)Gal(b1-4)GlcNAc(b1-3)Gal(b1-4)GlcNAc(b1-6)]Man(a1-6)[Gal(b1-4)GlcNAc(b1-3)Gal(b1-4)GlcNAc(b1-3)Gal(b1-4)GlcNAc(b1-2)Man(a1-3)]Man(b1-4)GlcNAc(b1-4)[Fuc(a1-6)]GlcNAc
Method in brief: as §1

[33] = target: Gal(b1-4)GlcNAc(b1-3)Gal(b1-4)GlcNAc(b1-3)Gal(b1-4)GlcNAc(b1-3)Gal(b1-4)GlcNAc(b1-2)Man(a1-3)[Gal(b1-4)GlcNAc(b1-3)Gal(b1-4)GlcNAc(b1-3)Gal(b1-4)GlcNAc(b1-3)Gal(b1-4)GlcNAc(b1-2)Man(a1-6)]Man(b1-4)GlcNAc(b1-4)GlcNAc
Method in brief: as §1

B1: SAOUHSC 00176 (Staphylococcus aureus) (protein)
chain: MSKILKCITLAVVMLLIVTACGPNRSKEDIDKALNKDNSKDKPNQLTMWVDGDKQMAFYKKITDQYTKKTGIKVKLVNIGQNDQLENISLDAPAGKGPDIFFLAHDNTGSAYLQGLAAEIKLSKDELKGFNKQALKAMNYDNKQLALPAIVETTALFYNKKLVKNAPQTLEEVEANAAKLTDSKKKQYGMLFDAKNFYFNYPFLFGNDDYIFKKNGSEYDIHQLGLNSKHVVKNAERLQKWYDKGYLPKAATHDVMIGLFKEGKVGQFVTGPWNINEYQETFGKDLGVTTLPTDGGKPMKPFLGVRGWYLSEYSKHKYWAKDLMLYITSKDTLQKYTDEMSEITGRVDVKSSNPNLKVFEKQARHAEPMPNIPEMRQVWEPMGNASIFISNGKNPKQALDEATNDITQNIKILHPSQNDKKGD
glycan array binding signal (z-score) (Gal(b1-4)Glc): 0.011
glycan array binding signal (z-score) (Gal(b1-4)Glc6S): -0.018
glycan array binding signal (z-score) (Gal(b1-4)GlcNAc): -0.096
glycan array binding signal (z-score) [1]: -0.168
glycan array binding signal (z-score) (Gal(b1-4)GlcNAc(b1-2)Man): -0.018
glycan array binding signal (z-score) [2]: -0.068
glycan array binding signal (z-score) [3]: -0.149
glycan array binding signal (z-score) [4]: -0.032
glycan array binding signal (z-score) [5]: -0.097
glycan array binding signal (z-score) [6]: -0.127
glycan array binding signal (z-score) [7]: -0.119
glycan array binding signal (z-score) [8]: -0.147
glycan array binding signal (z-score) [9]: 1.03
glycan array binding signal (z-score) [10]: -0.047
glycan array binding signal (z-score) [11]: -0.013
glycan array binding signal (z-score) [12]: -0.082
glycan array binding signal (z-score) [13]: 0.035
glycan array binding signal (z-score) [14]: -0.112
glycan array binding signal (z-score) [15]: 0
glycan array binding signal (z-score) [16]: -0.068
glycan array binding signal (z-score) [17]: 0.092
glycan array binding signal (z-score) [18]: -0.002
glycan array binding signal (z-score) [19]: -0.156
glycan array binding signal (z-score) [20]: -0.098
glycan array binding signal (z-score) [21]: -0.068
glycan array binding signal (z-score) [22]: -0.141
glycan array binding signal (z-score) [23]: -0.125
glycan array binding signal (z-score) [24]: -0.075
glycan array binding signal (z-score) [25]: 0.017
glycan array binding signal (z-score) [26]: 0.174
glycan array binding signal (z-score) [27]: 0.619
glycan array binding signal (z-score) [28]: -0.019
glycan array binding signal (z-score) [29]: -0.089
glycan array binding signal (z-score) [30]: 0.055
glycan array binding signal (z-score) [31]: -0.016
glycan array binding signal (z-score) [32]: 0.056
glycan array binding signal (z-score) [33]: 0.201
